According to paper PMC4336329 (PLoS ONE, 2015):
About 14,000 (4.5%) of roughly 310,000 compounds showed an effect of 50% or more. Effects have a minus sign here. The list shows a part of the results.

What follows are compounds tested against human ether-à-go-go-related gene (hERG) potassium channel (human, UniProt Q12809) (assay: primary screen, population patch clamp on CHO cells stably expressing hERG).
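Also: peak tail current of the secondary pulse compared with the same well before compound.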

human ether-à-go-go-related gene (hERG) potassium channel, sequence (Q12809 whole entry, looked up): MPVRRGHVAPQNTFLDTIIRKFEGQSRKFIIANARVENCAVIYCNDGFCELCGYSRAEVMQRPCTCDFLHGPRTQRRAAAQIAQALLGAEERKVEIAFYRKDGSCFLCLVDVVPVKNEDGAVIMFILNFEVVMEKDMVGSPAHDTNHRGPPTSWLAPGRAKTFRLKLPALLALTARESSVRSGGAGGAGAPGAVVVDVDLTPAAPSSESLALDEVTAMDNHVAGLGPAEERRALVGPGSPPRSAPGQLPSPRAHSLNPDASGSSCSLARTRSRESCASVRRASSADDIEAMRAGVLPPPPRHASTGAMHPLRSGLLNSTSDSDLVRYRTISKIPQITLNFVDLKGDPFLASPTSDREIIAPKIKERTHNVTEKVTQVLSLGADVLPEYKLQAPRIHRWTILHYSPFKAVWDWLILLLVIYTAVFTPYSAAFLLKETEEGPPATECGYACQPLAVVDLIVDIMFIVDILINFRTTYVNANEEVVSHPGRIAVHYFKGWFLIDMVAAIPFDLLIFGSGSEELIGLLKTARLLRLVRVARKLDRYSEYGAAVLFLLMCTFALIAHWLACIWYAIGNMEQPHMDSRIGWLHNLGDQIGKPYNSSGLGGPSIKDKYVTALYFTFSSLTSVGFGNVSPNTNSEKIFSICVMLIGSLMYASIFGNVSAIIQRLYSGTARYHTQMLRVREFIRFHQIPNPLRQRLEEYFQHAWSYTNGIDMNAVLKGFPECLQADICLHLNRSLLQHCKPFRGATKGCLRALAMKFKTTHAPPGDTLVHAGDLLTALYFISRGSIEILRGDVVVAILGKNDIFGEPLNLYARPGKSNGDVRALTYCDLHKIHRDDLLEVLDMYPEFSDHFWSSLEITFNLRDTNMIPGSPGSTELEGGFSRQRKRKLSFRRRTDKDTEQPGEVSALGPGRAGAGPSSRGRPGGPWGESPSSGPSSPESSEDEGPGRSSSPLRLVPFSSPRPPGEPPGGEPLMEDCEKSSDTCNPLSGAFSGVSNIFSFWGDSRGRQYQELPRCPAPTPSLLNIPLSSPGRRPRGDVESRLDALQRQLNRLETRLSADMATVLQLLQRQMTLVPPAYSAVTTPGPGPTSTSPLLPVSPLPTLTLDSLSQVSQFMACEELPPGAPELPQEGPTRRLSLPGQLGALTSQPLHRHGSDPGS

First: COc1cccc(OCc2nc3ncc(Br)cc3[nH]2)c1
Second: COc1cccc(C2CC(c3c(F)cccc3Cl)n3nc(N)nc3N2)c1 (centres unmarked)
The “hERG current change (%, negative = inhibition) at 10uM” value of the first is higher: 8.54% for the first, -2.6% for the second.

Going from `Cc1cc(C)cc(OCC(=O)OCC(=O)Nc2cc(S(=O)(=O)N3CCOCC3)ccc2C)c1` to `CCc1ccc(N2CC(C(=O)OCC(=O)Nc3ccccc3C)CC2=O)cc1` (centres unmarked), the “hERG current change (%, negative = inhibition) at 10uM” value rises from -16.6% to 5.78%.

First: O=C(Nc1c[nH]c(=O)[nH]c1=O)c1ccccc1Cl
Second: O=C(NNc1nc2ccccc2s1)c1ccccc1F
The “hERG current change (%, negative = inhibition) at 10uM” value of the first is higher: 18.5% for the first, -7.04% for the second.

Compared with `CCc1cccc2c(C#N)cn(CC(=O)NCCOC)c12`, `COc1ccc(OC)c(CCNC(=O)CC2Oc3ccccc3NC2=O)c1` (centres unmarked) is lower in “hERG current change (%, negative = inhibition) at 10uM” value: -1.87% for the first, -9.47% for the second.

First: COc1ccc(-c2cn(CCO)nc2-c2ccc(OC)cc2)cc1
Second: COc1ccc(CNC(=O)c2cc3cccc(OC)c3oc2=N)cc1
The “hERG current change (%, negative = inhibition) at 10uM” value of the first is lower: -4.8% for the first, 12.4% for the second.

First: O=C(NNS(=O)(=O)c1ccc(Br)cc1)c1cccs1
Second: O=C(Nc1ccc(S(=O)(=O)Nc2nccs2)cc1)C1CCCCC1
The “hERG current change (%, negative = inhibition) at 10uM” value of the first is higher: 1.68% for the first, -6.27% for the second.

First: COc1cc2[nH]c(C(=O)N3CCC4(CC3)OCCO4)cc2c(OC)c1OC
Second: COc1cc(C2Nc3cc(C)c(C)cc3NC3=C2C(=O)CC(C)(C)C3)ccc1OC(C)=O (centres unmarked)
The “hERG current change (%, negative = inhibition) at 10uM” value of the first is lower: 9.46% for the first, 21.1% for the second.

Going from `O=C1CC(c2ccccc2)CC(O)=C1C=NCCN1CCN(C(=O)Nc2ccccc2)CC1` (centres unmarked) to `O=C(/C=C/c1ccccc1)NCCc1ccccc1`, the “hERG current change (%, negative = inhibition) at 10uM” value rises from -64.4% to -0.345%.

Going from `OCCCNC(=S)Nc1ccc2nccnc2c1` to `CCOC(=O)c1cccc(NC(=O)CNC(=O)C2CCCCC2)c1`, the “hERG current change (%, negative = inhibition) at 10uM” value falls from 21.2% to -3.8%.

First: O=C(N/N=C/c1cccnc1)c1cc(-c2ccccc2OCc2ccccc2)n[nH]1
Second: NC(=O)C1CCCN(C(=O)c2cccc(S(=O)(=O)N(Cc3ccccc3)c3ccccc3)c2)C1 (centres unmarked)
The “hERG current change (%, negative = inhibition) at 10uM” value of the first is higher: 3.28% for the first, -32.3% for the second.

Going from `CC(C)(C)NC(=O)NC(=O)CN1CCCCC1` to `Cc1ccc(-c2nc(CS(=O)(=O)CC(=O)NCCN3CCCC3)c(C)o2)cc1`, the “hERG current change (%, negative = inhibition) at 10uM” value falls from 13.8% to 8.15%.

First: N#CC1(NC(=O)COC(=O)c2nccnc2N)CCCCC1
Second: COc1ccc(-c2noc(CCCC(=O)NC3CCCCC3)n2)cc1OC
The “hERG current change (%, negative = inhibition) at 10uM” value of the first is lower: -8.3% for the first, 9.83% for the second.

Compared with `O=C(O)c1ccccc1/C=N/Nc1ccc(S(=O)(=O)N2CCCC2)cc1[N+](=O)[O-]`, `Cc1ccc(S(=O)(=O)N2CCN(c3ccc(C(F)(F)F)cc3[N+](=O)[O-])CC2)cc1` is lower in “hERG current change (%, negative = inhibition) at 10uM” value: 1.14% for the first, -30.8% for the second.

First: CCOC(=O)Nc1ccc2c(CN3C(=O)NC(CC)(CC)C3=O)cc(=O)oc2c1
Second: COc1ccc(Cl)cc1NC(=O)CN(C)C(=O)CCC(=O)c1cc(C)sc1C
The “hERG current change (%, negative = inhibition) at 10uM” value of the first is higher: -26.4% for the first, -29.5% for the second.

First: O=[N+]([O-])c1cccc(NN=Nc2ccccc2)c1
Second: Cc1c(NC(=O)COC(=O)CSc2ccc([N+](=O)[O-])cc2)c(=O)n(-c2ccccc2)n1C
The “hERG current change (%, negative = inhibition) at 10uM” value of the first is higher: 14.7% for the first, -11.1% for the second.

First: C=CCOc1ccc(/C=N/NC(=O)C(C)Sc2ccccn2)cc1OCC (centres unmarked)
Second: COc1ccc(-n2c(SC(C)C(=O)Nc3ncc(Cl)cc3Cl)nc3ccccc32)cc1 (centres unmarked)
The “hERG current change (%, negative = inhibition) at 10uM” value of the first is higher: 20.6% for the first, 1.47% for the second.

First: COc1ccc(C)cc1NC(=O)COC(C)=O
Second: COc1ccc(CC(=O)NNC(=O)c2ccoc2C)cc1OC
The “hERG current change (%, negative = inhibition) at 10uM” value of the first is higher: 9.18% for the first, 6.04% for the second.

Compared with `CCCc1c(C)nc(N2CCN(c3ccc(F)cc3)CC2)[nH]c1=O`, `COc1ccc(N2CCN(C3CCCN(C(=O)CSC)C3)CC2)cc1` (centres unmarked) is lower in “hERG current change (%, negative = inhibition) at 10uM” value: 9.46% for the first, 3.1% for the second.

Compared with `O=C(CNC(=O)c1ccc(Cl)cc1)OCCCOC(=O)CNC(=O)c1ccc(Cl)cc1`, `CCOC(=O)CNC(=O)N1c2ccccc2Sc2ccccc21` is higher in “hERG current change (%, negative = inhibition) at 10uM” value: -7.13% for the first, 6.18% for the second.

Compared with `COc1ccc(/C=N/n2cnc3c([nH]c4ccc(F)cc43)c2=O)cc1CN1CCCC1`, `COC(=O)c1cc(=O)n(Cc2ccc(OC)c(OC)c2)c(=Nc2ccc(F)cc2)s1` is higher in “hERG current change (%, negative = inhibition) at 10uM” value: -68% for the first, 15.2% for the second.

Compared with `C=CCn1c2ccccc2c(=O)c2cc(C#Cc3ccsc3)ccc21`, `OCCN(CC#CCn1c2ccccc2c2ccccc21)CCO` is higher in “hERG current change (%, negative = inhibition) at 10uM” value: -0.176% for the first, 3.51% for the second.

First: CCCN1CCN(C(=O)c2ccc(F)c(S(=O)(=O)N3CCOCC3)c2)CC1.Cl
Second: Cc1cc(C)n(CCC(=O)N2CCN(S(=O)(=O)c3ccccc3)CC2)n1
The “hERG current change (%, negative = inhibition) at 10uM” value of the first is lower: -6.88% for the first, 19.4% for the second.

Going from `Cc1ccc(S(=O)(=O)N(C)Cc2ccc(C(=O)N/N=C3\CC(=O)CC(C)(C)C3)cc2)cc1` to `Cc1ccc(S(=O)(=O)N(C)c2ccc(OCC(=O)NCc3ccco3)cc2)cc1`, the “hERG current change (%, negative = inhibition) at 10uM” value falls from 2.94% to -44.8%.

Compared with `COc1ccc(N2CC2c2ccncc2)cc1` (centres unmarked), `COc1ccc(-n2nnnc2SCC(=O)NC2CC2)cc1` is lower in “hERG current change (%, negative = inhibition) at 10uM” value: 18.9% for the first, 7.6% for the second.

Compared with `COc1cc([N+](=O)[O-])ccc1NC(=O)Nc1ccc(C(=O)N2CCCC2)cc1`, `COc1ccc(CCNC(=O)c2ccc3c(c2)S(=O)(=O)N=C2CCCCCN23)cc1` is lower in “hERG current change (%, negative = inhibition) at 10uM” value: 7.18% for the first, -5.16% for the second.

First: Cc1ccc(C)n1-c1nn(S(=O)(=O)c2cccc3cccnc23)c2cccc(F)c12
Second: O=C1c2cccnc2C(=O)N1Cc1ccc(S(=O)(=O)N2CCOc3ccc(Cl)cc32)cc1
The “hERG current change (%, negative = inhibition) at 10uM” value of the first is higher: 22.7% for the first, 13.7% for the second.

Compared with `Cc1nn(CSc2c(F)c(F)c(F)c(F)c2F)c(C)c1[N+](=O)[O-]`, `COc1ccc(Nc2n[nH]c(C)c2[N+](=O)[O-])cc1` is higher in “hERG current change (%, negative = inhibition) at 10uM” value: 1.3% for the first, 9.52% for the second.

Going from `COc1cccc(CNC(=O)C2CCN(S(=O)(=O)c3cnc[nH]3)CC2)c1` to `O=C(Cc1c(F)cccc1Cl)N1CCN(S(=O)(=O)c2cccc(F)c2)CC1`, the “hERG current change (%, negative = inhibition) at 10uM” value rises from 5.71% to 7.81%.

Going from `CSc1n[nH]c(NC2=CC(=O)CCC2)n1` to `Cc1c2c(nc3c(C(=O)NC4CC4)cnn13)CCCC2`, the “hERG current change (%, negative = inhibition) at 10uM” value falls from 8.23% to -8.22%.

First: NC(=O)c1ccc(N2CCCCC2)c(N2C(=O)CCC2=O)c1
Second: Cc1cccc(C)c1NS(=O)(=O)c1cc2c3c(c1)CCN3C(=O)CC2
The “hERG current change (%, negative = inhibition) at 10uM” value of the first is higher: -7.94% for the first, -10% for the second.

Going from `O=C(NC1=NCCS1)c1sc2cc(F)ccc2c1Cl` to `O=C(c1ccccc1F)N1CCN=C1c1ccccc1`, the “hERG current change (%, negative = inhibition) at 10uM” value falls from 9.4% to 1.58%.

Compared with `CCn1cc([N+](=O)[O-])c(C(=O)N2N=C(c3ccc4ccccc4c3)CC2c2cc(Br)ccc2O)n1` (centres unmarked), `Cc1ccc(SCC(=O)OC(C)C(=O)N2CCc3ccccc32)cc1` (centres unmarked) is lower in “hERG current change (%, negative = inhibition) at 10uM” value: 17.2% for the first, -6.65% for the second.

First: NC1=NC[C@H](Cc2ccc(O)cc2)N1CC1CCCCC1
Second: CCCC(C(=O)NC1CCCC1)N(Cc1ccc(F)cc1)C(=O)c1snc(C(N)=O)c1N (centres unmarked)
The “hERG current change (%, negative = inhibition) at 10uM” value of the first is higher: 8.65% for the first, -45% for the second.

Compared with `Cc1cc(Cl)c(S(=O)(=O)NCCC(=O)O)cc1OCC(N)=O`, `Cc1ccnc(NC(=O)CCC(=O)N(CC(=O)NCc2ccc(F)cc2)c2cccc(F)c2)c1` is lower in “hERG current change (%, negative = inhibition) at 10uM” value: 17.8% for the first, 8.76% for the second.

First: CCP(=O)(CC)c1cccc(N)c1
Second: CC1(C)Cc2ccccc2C(=NCCCC(=O)O)N1
The “hERG current change (%, negative = inhibition) at 10uM” value of the first is lower: -2.95% for the first, 9.66% for the second.

Going from `CC(C)=CCN1CCN(Cc2cnc(N3CCCC3)s2)CC1CCO` (centres unmarked) to `COC(=O)C1=C(C)N(C2CCCCC2)C(=O)/C1=C\c1cccs1`, the “hERG current change (%, negative = inhibition) at 10uM” value falls from 34.1% to 14.8%.

Going from `N#C/C(=C(\O)c1ccco1)c1ccccn1` to `c1ccc(-n2nnc3ccccc32)nc1`, the “hERG current change (%, negative = inhibition) at 10uM” value rises from 2.52% to 3.7%.

Compared with `Cc1cc2nc(C(F)(F)F)cc(-c3cccs3)n2n1`, `C=CCn1c(O)c(C(C)=Nc2cccc(C(F)(F)F)c2)c(=O)[nH]c1=O` is lower in “hERG current change (%, negative = inhibition) at 10uM” value: 23.6% for the first, 2.66% for the second.

Going from `O=C(NCc1ccc(F)cc1)C(=O)NCC1OCCN1S(=O)(=O)c1cccs1` (centres unmarked) to `O=C(CN1CCCc2ccccc21)NCCc1ccc(Cl)cc1`, the “hERG current change (%, negative = inhibition) at 10uM” value falls from -9.44% to -13.1%.

Going from `N#Cc1ccc(CSc2nnc(NC(=O)CCc3nc4ccccc4c(=O)[nH]3)s2)cc1` to `CCOC(=O)C1=C(C)Nc2nc(SCc3cccnc3)nn2C1c1ccc(OC)cc1` (centres unmarked), the “hERG current change (%, negative = inhibition) at 10uM” value rises from -3.53% to 2.63%.

Compared with `CCCCC(CC)COC(=O)c1ccccc1C(=O)OCC(CC)CCCC` (centres unmarked), `Cc1c(OC(C)C(=O)NCC2CCC(C(=O)O)CC2)ccc2c3c(c(=O)oc12)CCCC3` (centres unmarked) is lower in “hERG current change (%, negative = inhibition) at 10uM” value: 9.63% for the first, -12.6% for the second.

First: C[C@H]1CC[C@H]2NCCN[C@H]2C1
Second: C=CCN(C(=O)c1csnn1)C(C(=O)NC1CCCC1)c1ccc(F)cc1 (centres unmarked)
The “hERG current change (%, negative = inhibition) at 10uM” value of the first is higher: 4.76% for the first, -0.596% for the second.

Compared with `C/C(=N\Nc1ccccn1)c1ccc2c(c1)OCO2`, `S=c1[nH]cnc2sc(Nc3ccccc3)nc12` is higher in “hERG current change (%, negative = inhibition) at 10uM” value: -8.06% for the first, 20.7% for the second.

First: S=C1NC(c2ccccc2)=NCN1c1ccc(Br)cc1
Second: COc1cccc(N=Nc2c(=O)[nH]n3c(C)cc(C)nc23)c1
The “hERG current change (%, negative = inhibition) at 10uM” value of the first is higher: -12.9% for the first, -17.5% for the second.

For `CCNc1nc(NCC)nc(N/N=C/c2ccc(O)c(O)c2)n1`, the “hERG current change (%, negative = inhibition) at 10uM” value was 25.9%.
